Test results as given in the supplement of paper PMC7826260.
Some of the results follow. One pool of 16,384 single-stranded DNAs met each Rep nickase domain in vitro (3 µM enzyme, 1 h, 37 °C); shown is the middle of each 90-letter strand. Numbers give uncut DNA relative to the enzyme-free pool, as log2; uncut sequences lie near 0, cut ones below; no hit call is given. The scaling is to total reads, so uncut sequences can rise above 0 when many others are cut.

Assays:
Assay in all cases: uncleaved DNA left, log2 of reads against the no-enzyme library (log2 ratio); higher = less cleavage (more negative = more Rep cleavage of the k-mer); sequences stand for … in CTCGTCCG…ACCGGAGA
[1] = test system: T1, Rep nickase domain of Muscovy duck circovirus
T1 sequence (residues 1-111 of Rep, tag left off): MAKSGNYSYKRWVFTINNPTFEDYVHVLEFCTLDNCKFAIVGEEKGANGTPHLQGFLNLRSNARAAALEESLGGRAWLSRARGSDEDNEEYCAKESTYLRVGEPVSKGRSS
Protocol: (§1)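 A pool of 90-nt single-stranded DNAs with seven random bases just before the constant AC of the nick site (name = the seven bases) was cut by 3 µM recombinant His6-SUMO-tagged Rep nickase domain (300 nM DNA, 50 mM HEPES pH 8.0, 50 mM NaCl, 1 mM MnCl2, 1 h, 37 °C, three replicates). Uncut DNA was amplified and sequenced.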

[2] = test system: T2, Rep nickase domain of banana bunchy top virus
T2 sequence (residues 1-94 of Rep, tag left off): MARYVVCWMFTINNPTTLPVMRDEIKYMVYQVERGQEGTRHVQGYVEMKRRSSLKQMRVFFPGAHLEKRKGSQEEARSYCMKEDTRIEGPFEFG
Protocol: as §1

[3] = test system: T3, Rep nickase domain of cabbage leaf curl virus
T3 sequence (residues 1-116 of Rep, tag left off): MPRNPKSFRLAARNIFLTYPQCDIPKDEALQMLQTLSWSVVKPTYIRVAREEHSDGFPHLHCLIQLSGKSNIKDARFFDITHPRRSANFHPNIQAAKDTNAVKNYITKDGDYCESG
Protocol: as §1

[4] = test system: T4, Rep nickase domain of chickpea chlorotic dwarf virus
T4 sequence (residues 1-124 of Rep, tag left off): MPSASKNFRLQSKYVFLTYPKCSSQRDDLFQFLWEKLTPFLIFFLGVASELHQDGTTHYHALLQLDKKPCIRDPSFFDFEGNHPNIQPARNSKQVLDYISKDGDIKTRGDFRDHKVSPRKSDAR
Protocol: as §1

[5] = test system: T5, Rep nickase domain of faba bean necrotic yellows virus
T5 sequence (residues 1-98 of Rep, tag left off): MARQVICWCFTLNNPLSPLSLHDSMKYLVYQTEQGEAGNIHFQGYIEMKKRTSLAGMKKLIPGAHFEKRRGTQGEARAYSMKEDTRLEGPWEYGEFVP
Protocol: as §1

[6] = test system: T6, Rep nickase domain of maize striate mosaic virus
T6 sequence (residues 1-117 of Rep, tag left off): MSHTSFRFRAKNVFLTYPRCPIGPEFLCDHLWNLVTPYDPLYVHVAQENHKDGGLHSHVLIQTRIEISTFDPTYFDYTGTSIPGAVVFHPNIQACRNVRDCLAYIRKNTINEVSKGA
Protocol: as §1

[7] = test system: T7, Rep nickase domain of porcine circovirus 2
T7 sequence (residues 2-116 of Rep, tag left off): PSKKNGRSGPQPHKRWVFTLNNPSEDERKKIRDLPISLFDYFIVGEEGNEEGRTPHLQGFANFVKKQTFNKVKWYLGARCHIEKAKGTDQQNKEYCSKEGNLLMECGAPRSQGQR
Protocol: as §1

[8] = test system: T8, Rep nickase domain of tomato golden mosaic virus
T8 sequence (residues 1-124 of Rep, tag left off): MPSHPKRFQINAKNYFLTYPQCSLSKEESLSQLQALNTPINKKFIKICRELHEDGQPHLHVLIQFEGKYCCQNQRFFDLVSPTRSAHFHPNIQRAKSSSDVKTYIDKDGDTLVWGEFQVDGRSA
Protocol: as §1

[9] = test system: T9, Rep nickase domain of tomato yellow leaf curl virus
T9 sequence (residues 1-136 of Rep, tag left off): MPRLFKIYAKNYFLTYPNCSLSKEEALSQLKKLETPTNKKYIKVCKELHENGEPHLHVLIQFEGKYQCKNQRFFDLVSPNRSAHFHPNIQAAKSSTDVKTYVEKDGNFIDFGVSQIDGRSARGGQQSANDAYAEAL
Protocol: as §1

[10] = test system: T10, Rep nickase domain of wheat dwarf virus
T10 sequence (residues 1-137 of Rep, tag left off): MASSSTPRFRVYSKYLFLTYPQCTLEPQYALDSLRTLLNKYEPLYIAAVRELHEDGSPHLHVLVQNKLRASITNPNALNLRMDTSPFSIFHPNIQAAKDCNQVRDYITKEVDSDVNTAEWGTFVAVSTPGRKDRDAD
Protocol: as §1

| Sequence | uncleaved DNA left (log2) [1] | uncleaved DNA left (log2) [2] | uncleaved DNA left (log2) [3] | uncleaved DNA left (log2) [4] | uncleaved DNA left (log2) [5] | uncleaved DNA left (log2) [6] | uncleaved DNA left (log2) [7] | uncleaved DNA left (log2) [8] | uncleaved DNA left (log2) [9] | uncleaved DNA left (log2) [10] |
| --- | --- | --- | --- | --- | --- | --- | --- | --- | --- | --- |
| ATCGGGT | 0.0269 | 0.0535 | 0.267 | 1.03 | 0.0647 | 1.48 | 0.158 | 0.078 | 0.0843 | 0.0938 |
| CCGATAA | -0.0598 | -0.165 | -0.262 | -0.319 | -0.0585 | -0.615 | -0.148 | -0.0231 | -0.14 | -0.108 |
| CGGCACT | -0.0651 | -0.191 | 0.0444 | 0.0861 | -0.0828 | 1.02 | -0.0406 | -0.193 | 0.0719 | 0.0541 |
| GCTAACC | -0.147 | -0.0703 | -0.154 | -0.282 | -0.081 | 0.131 | -0.35 | -0.0111 | -0.0993 | -0.108 |
| TGTCAGC | -0.0821 | -0.00691 | 0.0717 | -0.17 | 0.0215 | -0.53 | 0.0816 | 0.0331 | 0.0713 | 0.0163 |
| CCATTAG | 0.0466 | -0.0425 | -0.419 | 0.556 | 0.0542 | -0.362 | 0.154 | -0.026 | 0.0512 | -0.199 |
| AGTTCTA | -0.137 | -0.0419 | 0.087 | -0.432 | -0.0434 | 0.134 | -0.914 | 0.0649 | 0.112 | 0.0131 |
| CCAGGGA | -0.0654 | -0.087 | 0.17 | 0.562 | -0.159 | 0.406 | -0.000512 | 0.0525 | -0.128 | -0.185 |
| ACTCCAG | -0.0174 | -0.00675 | -0.641 | -0.397 | -0.0294 | -1.17 | 0.14 | -0.0521 | 0.0127 | -0.207 |
| CAGGGTG | 0.138 | 0.134 | -0.282 | -0.253 | 0.0831 | -0.684 | 0.243 | 0.0815 | 0.128 | -0.00489 |
| ATCAGCC | -0.0796 | -0.0473 | -0.282 | -0.462 | -0.0473 | -1.12 | 0.00898 | -0.0336 | -0.0813 | -0.0671 |
| GCGGTCA | 0.0623 | -0.0533 | 0.62 | 1.26 | 0.0307 | 1.73 | 0.148 | -0.0115 | 0.0447 | 0.0685 |
| GGAGTGC | 0.00907 | 0.0046 | 0.377 | 0.921 | -0.113 | 0.618 | 0.0867 | -0.0704 | -0.0172 | 0.0597 |
| TCGAGCA | 0.00202 | 0.103 | 0.134 | 0.305 | -0.00118 | 0.0391 | -2.46 | 0.0989 | 0.108 | 0.145 |
| ACAAACA | 0.00162 | 0.0882 | -0.168 | -2.01 | 0.0261 | -0.769 | 0.0773 | 0.129 | -0.00643 | 0.0693 |
| TAGATTG | -0.0132 | -0.0777 | -0.0171 | 0.657 | -0.0665 | 0.936 | -0.0711 | 0.0409 | 0.0184 | 0.0338 |
| CGCTTAA | 0.0638 | -0.0245 | -0.119 | -0.338 | -0.0227 | -0.402 | -0.038 | -0.164 | -0.0362 | 0.0265 |
| CAGCTCA | 0.0295 | 0.0378 | -0.148 | -2.2 | 0.0804 | -0.427 | -0.948 | 0.0349 | 0.0664 | -0.0173 |
| TCCTTGG | 0.177 | -0.0105 | 0.0953 | 0.222 | 0.0178 | -0.0494 | 0.109 | 0.291 | 0.0474 | 0.0874 |
| CTCAGAA | -0.0328 | 0.0233 | -0.0625 | -0.0384 | -0.0789 | -0.615 | -0.0321 | -0.00477 | 0.0448 | 0.0375 |
| TCTCCGC | 0.151 | 0.0573 | -0.0602 | -0.106 | 0.091 | -0.347 | 0.0919 | 0.0423 | 0.00114 | 0.0723 |
| AAAACAG | 0.00923 | 0.0988 | -0.639 | -0.718 | 0.11 | -1.04 | 0.258 | 0.0957 | 0.0797 | -0.00919 |
| GAGCATT | 0.12 | 0.119 | 0.776 | 1.46 | -0.0604 | 2.06 | -2.53 | -0.0485 | 0.112 | 0.203 |
| TCGCCGG | -0.0848 | 0.0842 | 0.458 | 1.25 | -0.0562 | 1.78 | 0.0313 | 0.0708 | -0.162 | -0.109 |
| CGTGAGA | 0.084 | 0.0621 | -0.0301 | -0.0485 | 0.0354 | -0.739 | -0.00961 | 0.049 | 0.12 | -0.0463 |
| TTTTCTG | -0.0579 | -0.211 | -0.22 | -0.279 | 0.00235 | -0.348 | -0.0775 | -0.0928 | -0.0672 | -0.0402 |
| TTAGCTC | 0.039 | -0.0295 | 0.0854 | -0.453 | -0.0172 | -0.469 | -0.0494 | 0.0129 | -0.0203 | -0.116 |
| TTGTTAA | 0.11 | 0.127 | 0.376 | 0.56 | 0.0574 | 1.11 | 0.0524 | 0.206 | -0.00401 | 0.174 |
| AAGCCTG | 0.0589 | 0.032 | 0.238 | 1.24 | 0.032 | 1.74 | 0.143 | 0.0881 | -0.0758 | 0.0126 |
| GTCCTCA | 0.08 | 0.123 | 0.457 | 0.991 | 0.135 | 1.78 | 0.152 | 0.231 | 0.174 | 0.109 |
